The campaign covered roughly 310,000 compounds. About 14,000 (4.5%) showed an effect of 50% or more. Effects have a minus sign here. Some of the results follow.
These molecules were tested against human ether-à-go-go-related gene (hERG) potassium channel (human, UniProt Q12809) (assay: primary screen, population patch clamp on CHO cells stably expressing hERG).
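Note: peak tail current of the secondary pulse compared with the same well before compound.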

human ether-à-go-go-related gene (hERG) potassium channel, sequence (Q12809 whole entry, looked up): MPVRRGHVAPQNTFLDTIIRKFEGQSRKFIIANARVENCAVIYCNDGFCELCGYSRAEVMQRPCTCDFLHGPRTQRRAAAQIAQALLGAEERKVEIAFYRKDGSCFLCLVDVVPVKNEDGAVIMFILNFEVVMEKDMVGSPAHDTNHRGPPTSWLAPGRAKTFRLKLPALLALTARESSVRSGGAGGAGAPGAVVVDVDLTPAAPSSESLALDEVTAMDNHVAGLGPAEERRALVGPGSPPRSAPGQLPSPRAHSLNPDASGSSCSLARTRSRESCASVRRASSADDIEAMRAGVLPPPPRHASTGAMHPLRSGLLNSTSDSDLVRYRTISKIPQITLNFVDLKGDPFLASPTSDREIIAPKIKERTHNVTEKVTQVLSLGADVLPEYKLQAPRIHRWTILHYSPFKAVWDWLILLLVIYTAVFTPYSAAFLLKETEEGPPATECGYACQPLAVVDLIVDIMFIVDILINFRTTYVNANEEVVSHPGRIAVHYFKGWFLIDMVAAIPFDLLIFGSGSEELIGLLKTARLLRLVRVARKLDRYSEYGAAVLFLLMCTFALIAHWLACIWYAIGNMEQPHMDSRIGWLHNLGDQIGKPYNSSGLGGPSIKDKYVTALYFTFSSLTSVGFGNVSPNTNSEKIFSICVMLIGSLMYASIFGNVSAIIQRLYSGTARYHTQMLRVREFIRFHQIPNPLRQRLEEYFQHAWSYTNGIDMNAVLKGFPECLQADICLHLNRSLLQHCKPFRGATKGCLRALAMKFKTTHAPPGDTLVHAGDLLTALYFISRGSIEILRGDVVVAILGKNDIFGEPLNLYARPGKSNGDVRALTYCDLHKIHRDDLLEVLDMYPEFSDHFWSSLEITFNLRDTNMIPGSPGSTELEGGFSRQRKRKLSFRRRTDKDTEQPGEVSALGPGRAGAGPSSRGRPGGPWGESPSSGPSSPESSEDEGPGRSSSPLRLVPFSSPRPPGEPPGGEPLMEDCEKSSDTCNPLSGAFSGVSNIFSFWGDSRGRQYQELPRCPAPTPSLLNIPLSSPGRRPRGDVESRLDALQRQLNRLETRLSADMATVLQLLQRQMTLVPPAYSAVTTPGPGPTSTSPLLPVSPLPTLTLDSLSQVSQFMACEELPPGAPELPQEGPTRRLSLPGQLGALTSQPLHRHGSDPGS

First: CC1CCCCC1NC(=O)C1CCN(S(=O)(=O)c2cccc3nonc23)CC1 (stereo not shown)
Second: CCCCN(Cc1ccccc1)C(=O)C1CCN(S(=O)(=O)c2c(C)noc2C)CC1
The “hERG current change (%, negative = inhibition) at 10uM” value of the first is lower: 6.82% for the first, 17.5% for the second.

First: COc1ccc(CCNC(=O)CN(c2ccc(OC)c(OC)c2)S(C)(=O)=O)cc1
Second: COc1ccc(N(CC(=O)NC2CCCCCC2)S(=O)(=O)c2c(C)nn(C)c2C)cc1
The “hERG current change (%, negative = inhibition) at 10uM” value of the first is higher: 3.96% for the first, -28.2% for the second.

Going from CN(CC(=O)Nc1ccc(S(=O)(=O)N2CCCC2)cc1)CC(=O)Nc1ccc(F)c(F)c1F to CCN(CC)S(=O)(=O)c1cc(NC(=O)CNc2cccc(S(=O)(=O)N3CCCC3)c2)ccc1C, the “hERG current change (%, negative = inhibition) at 10uM” value falls from -0.661% to -18.1%.

Compared with CC1(c2ccccc2)NC(=O)N(CC(=O)Nc2ccccc2N2CCCC2)C1=O (stereo not shown), O=C(CCc1nnc2n(CCc3ccccc3)c(=O)c3ccccc3n12)NCCCN1CCCCC1 is lower in “hERG current change (%, negative = inhibition) at 10uM” value: 13.4% for the first, -77.6% for the second.

Compared with Cc1noc(/C=C/N(C)C)c1S(=O)(=O)N1CCCC(C(=O)NCCC2=CCCCC2)C1 (stereo not shown), Cc1ccc(C(=O)OCC(=O)Nc2cccc(S(=O)(=O)NC3=NCCCCC3)c2)c(C)c1 is lower in “hERG current change (%, negative = inhibition) at 10uM” value: 3.98% for the first, -15.4% for the second.

Compared with NC(=O)c1ccc(NCc2ccco2)c([N+](=O)[O-])c1, Cc1ccc(C(=O)NC(C)CCc2ccccc2)cc1[N+](=O)[O-] (stereo not shown) is lower in “hERG current change (%, negative = inhibition) at 10uM” value: 6.16% for the first, -13.9% for the second.

First: CC(=O)c1c(C)[nH]c(C(=O)OCn2nnc3ccccc3c2=O)c1C
Second: Cn1c(=O)c(C(=O)Nc2ccccc2S(N)(=O)=O)c(O)c2ccccc21
The “hERG current change (%, negative = inhibition) at 10uM” value of the first is higher: 9.87% for the first, -7.99% for the second.

Compared with Cc1nc([N+](=O)[O-])cn1CC(=O)Nc1ccc(Cl)cc1, O=C(CS(=O)c1ccc(C(F)(F)F)cc1[N+](=O)[O-])Oc1ccc(Cl)cc1 (stereo not shown) is higher in “hERG current change (%, negative = inhibition) at 10uM” value: 5.72% for the first, 25.1% for the second.

Compared with Cc1ccccc1C(=O)OCCCN=C1NS(=O)(=O)c2ccccc21, O=C1c2ccccc2-c2nc3ccccc3nc21 is lower in “hERG current change (%, negative = inhibition) at 10uM” value: -5.11% for the first, -17.4% for the second.

First: S=C1NCCNC(=S)NCCOCCN1
Second: O=S(=O)(CCN1CCOCC1)c1ccccc1
The “hERG current change (%, negative = inhibition) at 10uM” value of the first is higher: 22.4% for the first, 8.81% for the second.

First: COc1cc(Cl)c([C@@H]2C[C@H]3CN(c4ccccc4)C(=O)[C@]34CCCN24)cc1OC
Second: CN(Cc1cccc(F)c1)C(=O)CN1C(=O)NC2(CCc3ccccc32)C1=O (stereo not shown)
The “hERG current change (%, negative = inhibition) at 10uM” value of the first is lower: -70.9% for the first, -0.338% for the second.

Going from CN(C)c1ccc(/C=C(/C(=O)c2ccc(Cl)cc2Cl)n2cncn2)cc1 to CCOC(=O)c1cn(Cc2ccc(Cl)cc2Cl)c2cc(C)nn2c1=O, the “hERG current change (%, negative = inhibition) at 10uM” value falls from -10.4% to -35.2%.

Going from COCCN(C(=S)Nc1ccc(C(C)C)cc1)C(C)c1cccs1 (stereo not shown) to Cc1cc(=O)oc2cc(OC(C)C(=O)Nc3ccc(N4CCCCC4)cc3)ccc12 (stereo not shown), the “hERG current change (%, negative = inhibition) at 10uM” value rises from 8.26% to 23.6%.

Going from Cc1c(NC(=O)C(C)OC(=O)/C=C/c2ccc(OC(F)F)cc2)c(=O)n(-c2ccccc2)n1C (stereo not shown) to Cc1c(O)ccc2c(CC(=O)N[C@@H](Cc3ccccc3)C(=O)O)cc(=O)oc12, the “hERG current change (%, negative = inhibition) at 10uM” value rises from -23.1% to 14.7%.

Going from CC(C)[C@H](NC(=O)[C@H]1N2C(=O)c3ccccc3C2SC1(C)C)C(=O)NCc1ccco1 (stereo partly shown) to O=C(CNC(=O)/C(=C/c1ccccc1)NC(=O)c1ccc(Br)cc1)OCc1ccccc1, the “hERG current change (%, negative = inhibition) at 10uM” value falls from 2.21% to -64%.

Going from Nc1ccc(N=Nc2ccccc2)c2cccnc12 to Cl.OCCNCc1c(OCc2ccc(Cl)cc2)ccc2ccccc12, the “hERG current change (%, negative = inhibition) at 10uM” value falls from 17.2% to -77.4%.

Going from O=C(Nc1ccc2c(c1)C(=O)NC2=O)c1cccc(Cl)c1 to CCN(CC(=O)NCc1ccc(F)cc1)Cc1nc2cc(Cl)ccc2c(=O)[nH]1, the “hERG current change (%, negative = inhibition) at 10uM” value falls from 11.3% to -72.6%.

Compared with Cc1ccc2nc(/C(C#N)=C/c3ccc(O)c(O)c3)[nH]c2c1, N#Cc1ccc(Cl)cc1NC(=O)CNCc1cccs1.O=C(O)C(=O)O is lower in “hERG current change (%, negative = inhibition) at 10uM” value: 7.82% for the first, -22.2% for the second.

Going from C=CCNC(=O)Nc1ccc(Br)cc1Cl to CC(C)S(=O)(=O)c1csc(NC(=O)Nc2cc(Cl)ccc2Cl)c1Cl, the “hERG current change (%, negative = inhibition) at 10uM” value falls from 13.8% to 0.66%.

Going from Cc1cc(=O)cc(C)[nH]1 to Cc1nn(Cc2ccccc2Cl)c(C)c1N, the “hERG current change (%, negative = inhibition) at 10uM” value rises from 3.9% to 5%.

First: O=S(=O)(c1ccc(F)cc1)n1ccc(-c2cccc(OCc3ccc(Cl)cc3Cl)c2)n1
Second: CCOc1ccccc1OCC(=O)Nc1ccc(S(=O)(=O)Nc2ncccn2)cc1
The “hERG current change (%, negative = inhibition) at 10uM” value of the first is higher: 13.4% for the first, 2.36% for the second.

Compared with CCCCCCCCCCCCCCCC[n+]1cccc2ccccc21.[I-], CCc1sc(NS(C)(=O)=O)nc1-c1ccccc1 is higher in “hERG current change (%, negative = inhibition) at 10uM” value: -71.2% for the first, -10.3% for the second.

First: CC(=O)c1ccc(Oc2nc3c(c(=O)n(C)c(=O)n3C)n2C)cc1
Second: COc1ccc(C(=O)N/C(=C\c2cn(S(=O)(=O)N(C)C)c3ccccc23)C(=O)NCCCn2ccnc2)cc1
The “hERG current change (%, negative = inhibition) at 10uM” value of the first is lower: -2.77% for the first, 1.07% for the second.

First: C/C(=N\S(=O)(=O)c1ccc(C)cc1)N(C)C
Second: COCCCNC(=O)c1cc(S(=O)(=O)N2CCOCC2)ccc1SCc1cccc(OC)c1OC
The “hERG current change (%, negative = inhibition) at 10uM” value of the first is higher: 6.9% for the first, -23.9% for the second.

Compared with CC(C)CCNC(=O)Cc1c(C(=O)O)[nH]c2ccc(Cl)cc12, O=C(COC(=O)CNC(=O)C1CCCCC1)Nc1ccc(Cl)cc1F is lower in “hERG current change (%, negative = inhibition) at 10uM” value: 17.6% for the first, -4.38% for the second.

First: O=C1CN(c2ccccc2F)C(=O)CN1c1ccccc1F
Second: Nc1ccccc1SCc1cc([N+](=O)[O-])cc2c1OCOC2
The “hERG current change (%, negative = inhibition) at 10uM” value of the first is higher: 4.63% for the first, -21.2% for the second.

Compared with CCOc1ccc2nc(NC(=O)CSC3=NCCS3)sc2c1, CC(C)(C)OC(=O)N1CCC(c2c(C(=O)NC3CC3)cnn2-c2ccccc2)CC1 is lower in “hERG current change (%, negative = inhibition) at 10uM” value: 2.84% for the first, -22.9% for the second.

In the case of COc1nc(N)nc(NC23CC4CC(CC(C4)C2)C3)n1, the “hERG current change (%, negative = inhibition) at 10uM” value is reported as -39.7%.
